# Some of the results follow.
# B1: AFL5 (Aspergillus fumigatus), Q4WB00 (protein)
# chain: MDNFMEMTKKLGHQPELLRLRALDATYDDALEGKLVVAPLDMSEPGKKILDSGTADGTWLRNVRSKQSVPHDYYGSDVEGELFPKDPDGITYFAHSFKDPWPQQYLGFFDLVHIRGSLAGSAPEGPAPVIQNLTTLLKPGGWVQLMEMNAFSPPPNGPAMTDFAKMASEMFTGIGVGDFANNNKSMLEDAGLKNVQEKRVIVNLGKKAKPELHDQSIHGVTGPIVPLTSVARTVKSSFTGEQLDALPARVKEELETEGGQVEMIIAFGQKA
# Assays:
# Experiment in all cases: glycan array binding signal (z-score within array); higher = stronger binding
# Conditions in all cases: glycan notation: IUPAC condensed, linker removed
# [1] = molecular target: Gal3S(b1-3)[Fuc(a1-4)]GlcNAc
# In short: (§1)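 Negative Z-scores can be read as non-binding. The Z-score is calculated within each array and then averaged across arrays of one protein sequence at different concentrations or buffers and across linkers. Arrays, 3228 in all, were curated from the Consortium for Functional Glycomics database and kept only where the protein sequence was available.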
# Gal3S(b1-4)Glc = molecular target: Gal3S(b1-4)Glc
# In short: as §1
# Gal3S(b1-4)Glc6S = molecular target: Gal3S(b1-4)Glc6S
# In short: as §1
# Gal3S(b1-4)GlcNAc = molecular target: Gal3S(b1-4)GlcNAc
# In short: as §1
# [2] = molecular target: Gal3S(b1-4)[Fuc(a1-3)]Glc6S
# In short: as §1
# [3] = molecular target: Gal3S(b1-4)[Fuc(a1-3)]GlcNAc
# In short: as §1
# [4] = molecular target: Gal3S(b1-4)[Fuc(a1-3)]GlcNAc6S
# In short: as §1
# Gal3S4S(b1-4)GlcNAc = molecular target: Gal3S4S(b1-4)GlcNAc
# In short: as §1
# Gal3S6S(b1-4)GlcNAc = molecular target: Gal3S6S(b1-4)GlcNAc
# In short: as §1
# Gal3S6S(b1-4)GlcNAc6S = molecular target: Gal3S6S(b1-4)GlcNAc6S
# In short: as §1
# Gal4S(b1-4)GlcNAc = molecular target: Gal4S(b1-4)GlcNAc
# In short: as §1
# Gal4S6S(b1-4)GlcNAc = molecular target: Gal4S6S(b1-4)GlcNAc
# In short: as §1
# Gal6P(b1-4)GlcNAc = molecular target: Gal6P(b1-4)GlcNAc
# In short: as §1
# Gal6S(b1-3)GlcNAc = molecular target: Gal6S(b1-3)GlcNAc
# In short: as §1
# Gal6S(b1-3)GlcNAc6S = molecular target: Gal6S(b1-3)GlcNAc6S
# In short: as §1
# Gal6S(b1-4)Glc = molecular target: Gal6S(b1-4)Glc
# In short: as §1
# Gal6S(b1-4)Glc6S = molecular target: Gal6S(b1-4)Glc6S
# In short: as §1
# Gal6S(b1-4)GlcNAc = molecular target: Gal6S(b1-4)GlcNAc
# In short: as §1
# Gal6S(b1-4)GlcNAc6S = molecular target: Gal6S(b1-4)GlcNAc6S
# In short: as §1
# GalNAc(a1-3)Gal = molecular target: GalNAc(a1-3)Gal
# In short: as §1
# GalNAc(a1-3)GalNAc = molecular target: GalNAc(a1-3)GalNAc
# In short: as §1
# [5] = molecular target: GalNAc(a1-3)GalNAc(b1-3)Gal(a1-4)Gal(b1-4)Glc
# In short: as §1
# [6] = molecular target: GalNAc(a1-3)GalNAc(b1-3)Gal(a1-4)Gal(b1-4)GlcNAc
# In short: as §1
# GalNAc(b1-3)Gal = molecular target: GalNAc(b1-3)Gal
# In short: as §1
# [7] = molecular target: GalNAc(b1-3)Gal(a1-4)Gal(b1-4)GlcNAc
# In short: as §1
# [8] = molecular target: GalNAc(b1-3)Gal(a1-4)Gal(b1-4)GlcNAc(b1-3)Gal(b1-4)Glc
# In short: as §1
# [9] = molecular target: GalNAc(b1-3)Gal(a1-6)Gal(b1-4)Glc
# In short: as §1
# GalNAc(b1-3)GalNAc = molecular target: GalNAc(b1-3)GalNAc
# In short: as §1
# GalNAc(b1-3)GlcNAc = molecular target: GalNAc(b1-3)GlcNAc
# In short: as §1
# GalNAc(b1-4)Gal(b1-4)Glc = molecular target: GalNAc(b1-4)Gal(b1-4)Glc
# In short: as §1
# GalNAc(b1-4)GlcNAc = molecular target: GalNAc(b1-4)GlcNAc
# In short: as §1
# [10] = molecular target: GalNAc(b1-4)GlcNAc(b1-2)Man
# In short: as §1
# [11] = molecular target: GalNAc(b1-4)GlcNAc(b1-2)Man(a1-3)[GalNAc(b1-4)GlcNAc(b1-2)Man(a1-6)]Man(b1-4)GlcNAc(b1-4)GlcNAc
# In short: as §1
# [12] = molecular target: GalNAc(b1-4)GlcNAc(b1-3)GalNAc(b1-4)GlcNAc
# In short: as §1
# GalNAc(b1-4)GlcNAc6S = molecular target: GalNAc(b1-4)GlcNAc6S
# In short: as §1
# GalNAc(b1-6)GalNAc = molecular target: GalNAc(b1-6)GalNAc
# In short: as §1
# GalNAc3S(b1-4)GlcNAc = molecular target: GalNAc3S(b1-4)GlcNAc
# In short: as §1
binder,measurement,setting,value
B1,glycan array binding signal (z-score),[1],0.21
same,glycan array binding signal (z-score),Gal3S(b1-4)Glc,0.158
same,glycan array binding signal (z-score),Gal3S(b1-4)Glc6S,-0.212
same,glycan array binding signal (z-score),Gal3S(b1-4)GlcNAc,0.093
same,glycan array binding signal (z-score),[2],0.374
same,glycan array binding signal (z-score),[3],0.221
same,glycan array binding signal (z-score),[4],0.418
same,glycan array binding signal (z-score),Gal3S4S(b1-4)GlcNAc,0.02
same,glycan array binding signal (z-score),Gal3S6S(b1-4)GlcNAc,0.383
same,glycan array binding signal (z-score),Gal3S6S(b1-4)GlcNAc6S,0.29
same,glycan array binding signal (z-score),Gal4S(b1-4)GlcNAc,-0.252
same,glycan array binding signal (z-score),Gal4S6S(b1-4)GlcNAc,-0.177
same,glycan array binding signal (z-score),Gal6P(b1-4)GlcNAc,-0.398
same,glycan array binding signal (z-score),Gal6S(b1-3)GlcNAc,-0.415
same,glycan array binding signal (z-score),Gal6S(b1-3)GlcNAc6S,0.427
same,glycan array binding signal (z-score),Gal6S(b1-4)Glc,-0.426
same,glycan array binding signal (z-score),Gal6S(b1-4)Glc6S,0.286
same,glycan array binding signal (z-score),Gal6S(b1-4)GlcNAc,-0.034
same,glycan array binding signal (z-score),Gal6S(b1-4)GlcNAc6S,-0.051
same,glycan array binding signal (z-score),GalNAc(a1-3)Gal,-0.479
same,glycan array binding signal (z-score),GalNAc(a1-3)GalNAc,-0.257
same,glycan array binding signal (z-score),[5],-0.241
same,glycan array binding signal (z-score),[6],-0.281
same,glycan array binding signal (z-score),GalNAc(b1-3)Gal,-0.162
same,glycan array binding signal (z-score),[7],0.257
same,glycan array binding signal (z-score),[8],0.616
same,glycan array binding signal (z-score),[9],0.524
same,glycan array binding signal (z-score),GalNAc(b1-3)GalNAc,0.114
same,glycan array binding signal (z-score),GalNAc(b1-3)GlcNAc,-0.465
same,glycan array binding signal (z-score),GalNAc(b1-4)Gal(b1-4)Glc,0.189
same,glycan array binding signal (z-score),GalNAc(b1-4)GlcNAc,0.348
same,glycan array binding signal (z-score),[10],-0.187
same,glycan array binding signal (z-score),[11],0.619
same,glycan array binding signal (z-score),[12],-0.282
same,glycan array binding signal (z-score),GalNAc(b1-4)GlcNAc6S,0.026
same,glycan array binding signal (z-score),GalNAc(b1-6)GalNAc,-0.013
same,glycan array binding signal (z-score),GalNAc3S(b1-4)GlcNAc,0.104
